{"source": "PubChem BioAssay AID686979", "about": "(National Center for Advancing Translational Sciences (NCATS), 2013)", "note": "The whole screen tested about 420,000 compounds, of which about 50,000 (12%) were called active. Inconclusive means that the source gave no clear call. Such entries were picked first, then a sample of the others. The call rests on the fitted dose curve; in most records, active means well fitted inhibition curve with a large enough effect; inconclusive means small, poorly fitted or top-dose-only effect; inactive means flat fitted curve, though single readings scatter. No potency is given beside an inconclusive call; the fits are too rough. On the % scale 0 is the no-effect control and ±100 the full control effect; potency means the concentration at half of the fitted maximal effect; tags describe the fitted curve by direction and shape."}
{"test": "qHTS for Inhibitors of human tyrosyl-DNA phosphodiesterase 1 (TDP1): qHTS in cells in presence of CPT; further: nearly all actives have a fitted effect of over 55% in size", "conditions": "chicken DT40 Tdp1-/-;hTDP1 cells + 20 nM CPT, ATP luminescence, 48 h; activity change, negative = growth inhibition: at 46.2 µM (top of the series) unless noted", "how_it_was_run": "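Chicken DT40 Tdp1-/- cells complemented with human TDP1, 400 cells/well, exposed to compounds plus 20 nM camptothecin for at least 48 h at 37 C; viability read as ATP content by CellTiter-Glo luminescence.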"}
{"compound": "Cc1ccc(CCNC(=O)Cn2ccc3cc(S(=O)(=O)N4CCCC4)ccc32)cc1", "Potency": "inconclusive [inhibitor, single point]"}
{"compound": "CC(=O)C1C(c2ccc(F)cc2)C2C(C)=NN=C2CC1(C)O", "note": "(configuration not stated)", "Potency": "inactive"}
{"compound": "CC(C)(C)c1ccc(OCCCNC2CCCC2)cc1", "Potency": "inconclusive [inhibitor, single point]"}
{"compound": "COc1ccc(C(=O)OCCc2sc[n+](CC(=O)c3ccccc3)c2C)cc1", "Potency": "inconclusive [inhibitor, single point]"}
{"compound": "CN(Cc1ccccc1)CC(O)COc1ccc(CNCCc2ccncc2)cc1", "note": "(configuration not stated)", "Potency": "inconclusive [inhibitor, single point]"}
{"compound": "COCC(=O)N1CCCN(c2nc3c(C)cccc3cc2C#N)CC1", "Potency": "inconclusive [inhibitor, partial curve]"}
{"compound": "Cc1cccnc1C(NC(=O)C1CCN(Cc2ccc(Cl)c(Cl)c2)CC1)c1ccc(Cl)cc1", "note": "(configuration not stated)", "Potency": "active: 3.26 µM"}
{"compound": "CC(C)Cc1cc(C(=O)NCc2ccc(Cl)cc2)no1", "Potency": "inactive"}
{"compound": "CCCCc1ccc(-n2nc3ccc(NC(=O)c4cc5ccccc5o4)cc3n2)cc1", "Potency": "inconclusive [inhibitor, single point]"}
{"compound": "O=C1NC(=O)C2(CCCC2)N1", "Potency": "inactive"}
{"compound": "Cc1ccnc(SCCn2c(N3CCN(Cc4ccccc4)CC3)nc3c2c(=O)[nH]c(=O)n3C)n1", "activity change, negative = growth inhibition": "inconclusive: -31.6% [inhibitor]"}
{"compound": "Cc1ccc(/C=N/n2c(COc3ccccc3)n[nH]c2=S)o1", "Potency": "inconclusive [inhibitor, single point]"}
{"compound": "COc1ccccc1N(C)C(=O)c1cc(S(=O)(=O)N2CCc3ccccc32)cn1C", "Potency": "inconclusive [inhibitor, single point]"}
{"compound": "Cc1ccc(-c2cc3cccc[n+]3cc2-c2ccc(C)cc2)cc1", "Potency": "active: 0.651 µM"}
{"compound": "CCOC(=O)c1cc(C(C)C)sc1NC(=O)COC(=O)c1nccnc1N", "Potency": "inconclusive [inhibitor, single point]"}
{"compound": "CCc1ccc2oc(-c3ccc(C)c(NC(=O)c4cc([N+](=O)[O-])ccc4N4CCOCC4)c3)nc2c1", "Potency": "inconclusive [inhibitor, partial curve, poor fit]"}
{"compound": "COc1ccc(C(=O)NNC2CC(=O)N(Cc3ccccc3)C2=O)cc1OC", "note": "(configuration not stated)", "Potency": "inactive"}
{"compound": "COc1ccc2[nH]cc(CCNc3ccnc(-c4c(C)noc4C)n3)c2c1", "Potency": "inconclusive [inhibitor, single point]"}
{"compound": "COc1ccc(-n2c(=O)c3c4c(sc3n(Cc3ccc(F)cc3)c2=O)CN(C(C)=O)CC4)c(OC)c1", "Potency": "active: 20.6 µM"}
{"compound": "CCOC(=O)N1CCC(N2C(=O)c3ccccc3C2Nc2ccc(Cl)cn2)CC1", "note": "(configuration not stated)", "Potency": "inconclusive [inhibitor, single point]"}
{"compound": "COC(=O)CN1C(=O)CSc2ccc(S(=O)(=O)Nc3ccc(F)c(Cl)c3)cc21", "Potency": "inconclusive [inhibitor, single point]"}
{"compound": "Cc1ccc(C(CCNC(C)c2cccs2)c2ccco2)cc1", "note": "(configuration not stated)", "Potency": "inconclusive [inhibitor, single point]"}
{"compound": "COc1cccc(N2CCN(C(=O)c3cccc(NC(=O)C4=C(C)OCCS4)c3)CC2)c1", "Potency": "inconclusive [inhibitor, single point]"}
{"compound": "COC(=O)c1ccc(-c2ccc(/C=N/NC(=O)Cc3nnc(N)s3)o2)cc1", "Potency": "inactive"}
{"compound": "COc1ccc(C(=O)NCCSc2c[nH]c3ccccc23)cc1OC", "Potency": "inconclusive [inhibitor, single point]"}
{"compound": "CCCc1ccc(OCc2nc(-c3ccc(NC(=O)c4ccco4)cc3)no2)cc1", "Potency": "inconclusive [inhibitor, single point]"}
{"compound": "CN1CCN(C(CNC(=O)c2ccc(F)cc2)c2ccc3c(c2)OCO3)CC1", "note": "(configuration not stated)", "Potency": "inactive"}
{"compound": "COc1ccc(OC)c(CCNC(=O)c2c(C)oc3ncn(CC(C)C)c(=O)c23)c1", "Potency": "inconclusive [inhibitor, single point]"}
{"compound": "COc1ccc(-c2cccc(C(=O)Nc3cccc(C(=O)O)c3)c2)cc1", "Potency": "inactive"}
{"compound": "COc1ccccc1NC(=S)N(C(C)C)C(C)c1ccccn1", "note": "(configuration not stated)", "Potency": "inconclusive [inhibitor, single point]"}
{"compound": "CN(C)c1ccc(C=NNC(=S)Nc2ccc(F)cc2)cc1", "Potency": "active: 3.66 µM"}
{"compound": "CCOc1ccccc1C(=O)NC(C(=O)NCc1ccc(F)cc1)C(C)C", "note": "(configuration not stated)", "Potency": "inconclusive [inhibitor, single point]"}
{"compound": "O=C(COC(=O)C1(c2ccc(F)cc2)CCCC1)NCc1ccc2c(c1)OCO2", "Potency": "inconclusive [inhibitor, single point]"}
{"compound": "COc1ccc(NC(=O)CCCn2nc(C)c3c(C)n(-c4ccccc4)nc3c2=O)cc1OC", "Potency": "inactive"}
{"compound": "O=C(CN1CCOCC1)Nc1ccc([N+](=O)[O-])cc1", "Potency": "inactive"}
{"compound": "Cc1ccc(-n2[nH]c(C)c(/C=N/c3cccc(C)n3)c2=O)cc1", "Potency": "inconclusive [inhibitor, single point]"}
{"compound": "CC(=O)N1CCc2c(sc3c2c(=O)n(Cc2ccccc2)c(=O)n3Cc2ccc(Cl)cc2)C1", "Potency": "inconclusive [inhibitor, single point]"}
{"compound": "CCCCC(O)(c1ccc(F)cc1)C(CN1CCOCC1)c1ccc(Cl)cc1", "note": "(configuration not stated)", "Potency": "inconclusive [inhibitor, single point]"}
{"compound": "O=C(O)c1sc(Nc2ccccc2)nc1-c1ccccc1", "Potency": "inactive"}
{"compound": "COc1ccc(NC(=O)CSC2=NN3CCCC(=O)N=C3S2)c(OC)c1", "Potency": "inactive"}
{"compound": "O=C(O)CCn1c(SCc2ccccc2)nc2ccccc21", "Potency": "inconclusive [inhibitor, single point]"}
{"compound": "O=C(O)CCC(=O)NNC(=O)COc1ccc2ccccc2c1Br", "Potency": "inactive"}
{"compound": "CC(=O)c1cccc(NC(=O)C2(C)Cc3c(-c4ccccc4)ccnc3O2)c1", "note": "(configuration not stated)", "Potency": "active: 23.1 µM"}
{"compound": "O=S(=O)(c1ccc2c(c1)OCCO2)N1CCN(c2nc(-c3cccs3)nc3ccccc23)CC1", "Potency": "inconclusive [inhibitor, partial curve, poor fit]"}
{"compound": "O=C(Oc1ccc(C(=S)N2CCOCC2)cc1)c1cccc(Cl)c1", "Potency": "inactive"}
{"compound": "CCCCCN1N=C(C)CC1=O", "Potency": "inactive"}
{"compound": "CCOCCCn1c(SCC(=O)Nc2ccccc2CC)nc2ccccc2c1=O", "Potency": "active: 16.4 µM"}
{"compound": "CCCc1ccc(C(O)c2ncc(-c3cccc(F)c3)[nH]2)cc1", "note": "(configuration not stated)", "Potency": "inconclusive [inhibitor, single point]"}
{"compound": "CCOC(=O)c1ccc(N2C(=O)C(O)=C(C(C)=O)C2c2ccccc2)cc1", "note": "(configuration not stated)", "Potency": "inconclusive [inhibitor, single point]"}
{"compound": "CCN(CC)S(=O)(=O)c1cccc(-c2nnc(SCCCC(=O)c3ccccc3)o2)c1", "Potency": "inconclusive [inhibitor, single point]"}
{"compound": "COc1ccc(NC(=O)C2Cc3c(-c4ccc(Cl)cc4)ccnc3O2)cc1", "note": "(configuration not stated)", "Potency": "inconclusive [inhibitor, single point]"}
{"compound": "O=C(NC1CCN(Cc2ccccc2)CC1)C1CCN(S(=O)(=O)c2cccc3nsnc23)CC1", "Potency": "inconclusive [inhibitor, partial curve, poor fit]"}
{"compound": "CCOC(=O)c1sc2nc(NC(=O)C(C)(C)C)sc2c1C", "Potency": "inconclusive [inhibitor, single point]"}
{"compound": "Cc1ccc(NC(=O)c2cccc3c(=O)c4c([nH]c23)CCCC4)c(C)c1", "Potency": "inconclusive [inhibitor, single point]"}
{"compound": "O=C(CS(=O)c1cccc(C(F)(F)F)c1)Nc1ccc(Cl)cc1Cl", "note": "(configuration not stated)", "activity change, negative = growth inhibition": "inconclusive: -26.7% [inhibitor]"}
{"compound": "O=S(=O)(NCCc1csc(-c2cccnc2)n1)c1cc(F)ccc1F", "Potency": "inconclusive [inhibitor, full curve, poor fit]"}
{"compound": "COc1ccc(NCc2cc3cc(OC)ccc3[nH]c2=O)cc1", "Potency": "active: 8.2 µM"}
{"compound": "O=C(COc1ccc([N+](=O)[O-])cc1)Nc1nc(-c2ccccn2)cs1", "Potency": "active: 4.61 µM"}
{"compound": "O=C(Cc1ccccc1[N+](=O)[O-])Nc1nccs1", "Potency": "active: 8.2 µM"}
{"compound": "COc1cccc(C2Nc3ccccc3NC3=C2C(=O)CC(C)(C)C3)c1", "note": "(configuration not stated)", "Potency": "inactive"}
{"compound": "Cc1ccc2ccc3cccnc3c2n1", "Potency": "active: 0.92 µM"}
{"compound": "Cc1cc(O)c(CN2CCN(S(=O)(=O)c3cccs3)CC2)cc1C(C)C", "Potency": "active: 23.1 µM"}
{"compound": "COc1ccc(OC(=O)Nc2ccc([N+](=O)[O-])cc2OC)cc1", "Potency": "inactive"}
{"compound": "CC(=O)c1cccc(NC(=O)c2nc(-c3ccccc3)oc2C)c1", "Potency": "inconclusive [inhibitor, single point]"}
{"compound": "Cc1ccc(N2C=Nc3ccc(C)c4nc(C)cc2c34)cc1", "Potency": "inconclusive [inhibitor, single point]"}
{"compound": "CCCCOC(=O)c1ccc(NC(=O)CSC2=Nc3ccccc3C3CC=NN23)cc1", "note": "(configuration not stated)", "Potency": "active: 23.1 µM"}
{"compound": "CCOC(=O)C1(Cc2cccc(Cl)c2)CCCN(CCO)C1", "note": "(configuration not stated)", "Potency": "inactive"}
{"compound": "Cc1csc(NC(=O)c2cc([N+](=O)[O-])cc([N+](=O)[O-])c2)n1", "activity change, negative = growth inhibition": "inconclusive: -31.6% [inhibitor]"}
{"compound": "CNc1nc(-c2ccccc2)[n+](-c2ccc(C)cc2)s1", "Potency": "active: 3.26 µM"}
{"compound": "COc1ccc(-c2c(-c3ccsc3)oc(=O)c3cc(OC)c(OC)cc23)cc1", "Potency": "inconclusive [inhibitor, single point]"}
{"compound": "CN(C(=O)c1cccc(NC(=O)Cc2cccc([N+](=O)[O-])c2)c1)C1CCC1", "Potency": "inconclusive [inhibitor, single point]"}
{"compound": "Cc1c(=O)n(OCc2ccccc2F)c2ccccc2[n+]1[O-]", "Potency": "inconclusive [inhibitor, single point]"}
